From patent US7335723B2, “Melanin-concentrating hormone antagonists” (priority 2001, dated 2008)
Not every detail of the peptide structures is certain; ends, links or a residue may be inferred. For some assays here: At least one read-out could not be matched to a standard name with certainty. Where a SMILES comes first, the peptide text is derived from it. Bridges are numbered along the chain shown (N, C = ends). [ ]: non-standard residue; d: D form. The star is where a group is joined. Pentanoyl(5-guanidino) = NC(N)=NCCCCC(=O)*; dNle = CCCC[C@@H](N)C(=O)O; Nle = CCCC[C@H](N)C(=O)O; Ava = NCCCCC(=O)O

Each compound was assayed against human MCH-1R (Homo sapiens, UniProt Q99705) (assay: MCH-1R binding assay, inhibition of [125I]-human MCH binding to membranes). Settings: read-out: MCH-1R Binding IC50; inhibition of [125I]-human MCH (Phe13, Tyr19) binding, cell membranes.
Sequence of human MCH-1R (Q99705 whole entry): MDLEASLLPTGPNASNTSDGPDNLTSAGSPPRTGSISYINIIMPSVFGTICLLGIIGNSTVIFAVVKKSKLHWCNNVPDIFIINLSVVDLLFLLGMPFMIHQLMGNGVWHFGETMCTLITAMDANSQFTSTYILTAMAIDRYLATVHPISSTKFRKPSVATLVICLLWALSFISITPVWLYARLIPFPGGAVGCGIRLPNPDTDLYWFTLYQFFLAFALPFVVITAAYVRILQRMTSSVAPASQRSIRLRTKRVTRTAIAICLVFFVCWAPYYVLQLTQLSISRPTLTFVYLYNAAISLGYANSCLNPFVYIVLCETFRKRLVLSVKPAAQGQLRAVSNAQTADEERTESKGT

CSCC[C@@H]1NC(=O)[C@@H](N)CSSC[C@@H](C(N)=O)NC(=O)CCCCNC(=O)CCCCNC(=O)[C@H](Cc2ccc(O)cc2)NC(=O)[C@H](C(C)C)NC(=O)[C@H](CCCNC(=N)N)NC(=O)CNC(=O)[C@H](CC(C)C)NC1=O [SEQ. ID. NO. 9] gave an IC50 of 550 nM.

These compounds were tested against human MCH-2R (Homo sapiens, UniProt Q969V1) (assay: MCH-2R binding assay, inhibition of [125I]-human MCH binding to membranes). Settings: @ 1 (concentration unit not given); in the IC50 (nM) column.
Set-up: expressed in transfected cells; host or cells: 293-AEQ17 (aequorin-expressing HEK-293 reporter line)

Sequence of human MCH-2R (Q969V1 whole entry): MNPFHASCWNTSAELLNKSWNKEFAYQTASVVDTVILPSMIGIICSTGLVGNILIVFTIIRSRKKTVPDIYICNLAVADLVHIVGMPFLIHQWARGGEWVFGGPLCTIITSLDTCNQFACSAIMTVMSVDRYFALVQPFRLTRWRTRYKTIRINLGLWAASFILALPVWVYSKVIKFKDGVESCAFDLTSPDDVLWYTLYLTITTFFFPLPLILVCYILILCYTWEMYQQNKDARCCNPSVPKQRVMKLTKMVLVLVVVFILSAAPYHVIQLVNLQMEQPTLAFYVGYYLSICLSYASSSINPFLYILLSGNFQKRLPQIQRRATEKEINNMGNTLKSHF

CSCC[C@@H]1NC(=O)[C@@H](NC(=O)[C@@H](CCCNC(=N)N)NC(C)=O)CSSC[C@@H](C(N)=O)NC(=O)[C@@H]2CCCN2C(=O)[C@H](CCCNC(=N)N)NC(=O)[C@H](Cc2ccc(O)cc2)NC(=O)[C@H](C(C)C)NC(=O)[C@H](CCCNC(=N)N)NC(=O)CCCCNC(=O)CCCCNC1=O [SEQ. ID. NO. 4] (Ac-[dR]CM[Ava][Ava]RVYRPC-NH2; disulfide 2-11 (inferred); C-terminus assumed) and CSCC[C@@H]1NC(=O)[C@@H](NC(=O)[C@H](CCCNC(=N)N)NC(C)=O)CSSC[C@@H](C(N)=O)NC(=O)CCCCNC(=O)CCCCNC(=O)[C@H](Cc2ccc(O)cc2)NC(=O)[C@H](C(C)C)NC(=O)[C@H](CCCNC(=N)N)NC(=O)[C@H]2CCCN2C(=O)[C@H](CC(C)C)NC1=O [SEQ. ID. NO. 28] (Ac-RCML[dP]RVY[Ava][Ava]C-NH2; disulfide 2-11 (inferred); C-terminus assumed) are the same in “MCH-2R Binding, % @ concentration” value: 5% @ 1 for the first, 5% @ 1 for the second.

With CSCC[C@@H]1NC(=O)[C@@H](NC(=O)[C@H](CCCNC(=N)N)NC(C)=O)CSSC[C@@H](C(N)=O)NC(=O)CCCCNC(=O)CCCCNC(=O)[C@H](Cc2ccc(O)cc2)NC(=O)[C@H](C(C)C)NC(=O)[C@H](CCCNC(=N)N)NC(=O)CCCCNC(=O)CCCCNC1=O [SEQ. ID. NO. 30] (Ac-RCM[Ava][Ava]RVY[Ava][Ava]C-NH2; disulfide 2-11 (inferred); C-terminus assumed) the “MCH-2R Binding, % @ concentration” value was 10% @ 1.

Same assay, conditions: @ 2 (concentration unit not given); in the IC50 (nM) column

CSCC[C@@H]1NC(=O)[C@@H](NC(=O)[C@H](CCCNC(=N)N)NC(C)=O)CSSC[C@@H](C(N)=O)NC(=O)CCCCNC(=O)CCCCNC(=O)[C@H](Cc2ccc(O)cc2)NC(=O)[C@H](C(C)C)NC(=O)[C@H](CCCNC(=N)N)NC(=O)CNC(=O)[C@H](CC(C)C)NC1=O [SEQ. ID. NO. 8] (Ac-RCMLGRVY[Ava][Ava]C-NH2; disulfide 2-11; C-terminus assumed) was tested, and the “MCH-2R Binding, % @ concentration” value was 6% @ 2.

Same assay, conditions: @ 4 (concentration unit not given); in the IC50 (nM) column

With CSCC[C@@H]1NC(=O)[C@@H](NC(=O)[C@@H](CCCNC(=N)N)NC(C)=O)CSSC[C@@H](C(N)=O)NC(=O)CCCCNC(=O)CCCCNC(=O)[C@H](Cc2ccc(O)cc2)NC(=O)[C@H](C(C)C)NC(=O)[C@H](CCCNC(=N)N)NC(=O)CNC(=O)[C@H](CC(C)C)NC1=O [SEQ. ID. NO. 10] (Ac-[dR]CMLGRVY[Ava][Ava]C-NH2; disulfide 2-11 (inferred); C-terminus assumed) the “MCH-2R Binding, % @ concentration” value was 41% @ 4.

Same assay, conditions: @ 10 (concentration unit not given); in the IC50 (nM) column

Compared with CSCC[C@@H]1NC(=O)[C@@H](NC(=O)CCCCNC(=N)N)CSSC[C@@H](C(N)=O)NC(=O)CNC(=O)[C@H](Cc2ccc(O)cc2)NC(=O)[C@H](C(C)C)NC(=O)[C@H](CCCNC(=N)N)NC(=O)CCCCNC(=O)CCCCNC1=O [SEQ. ID. NO. 6] ({Pentanoyl(5-guanidino)}-CM[Ava][Ava]RVYGC-NH2; disulfide 1-9), CSCC[C@@H]1NC(=O)[C@H](NC(=O)CCCCNC(=N)N)CSSC[C@@H](C(N)=O)NC(=O)CCCCNC(=O)CCCCNC(=O)[C@H](Cc2ccc(O)cc2)NC(=O)[C@H](C(C)C)NC(=O)[C@H](CCCNC(=N)N)NC(=O)CNC(=O)[C@H](CC(C)C)NC1=O [SEQ. ID. NO. 25] is higher in “MCH-2R Binding, % @ concentration” value: 28% @ 10 for the first, 61% @ 10 for the second.

First: CSCC[C@@H]1NC(=O)[C@@H](NC(=O)CCCCNC(=N)N)CSSC[C@@H](C(N)=O)NC(=O)CCCNC(=O)CCCNC(=O)[C@H](Cc2ccc(O)cc2)NC(=O)[C@H](C(C)C)NC(=O)[C@H](CCCNC(=N)N)NC(=O)CNC(=O)[C@H](CC(C)C)NC1=O [SEQ. ID. NO. 13]
Second: CSCC[C@@H]1NC(=O)[C@@H](NC(=O)CCCCNC(=N)N)CSSC[C@@H](C(N)=O)NC(=O)CCNC(=O)CCNC(=O)[C@H](Cc2ccc(O)cc2)NC(=O)[C@H](C(C)C)NC(=O)[C@H](CCCNC(=N)N)NC(=O)CNC(=O)[C@H](CC(C)C)NC1=O [SEQ. ID. NO. 14]
The “MCH-2R Binding, % @ concentration” value of the first is lower: 29% @ 10 for the first, 43% @ 10 for the second.

Compared with CCCC[C@@H]1NC(=O)[C@@H](NC(=O)CCCCNC(=N)N)CSSC[C@@H](C(N)=O)NC(=O)CCCCNC(=O)CCCCNC(=O)[C@H](Cc2ccc(O)cc2)NC(=O)[C@H](C(C)C)NC(=O)[C@H](CCCNC(=N)N)NC(=O)CNC(=O)[C@H](CC(C)C)NC1=O [SEQ. ID. NO. 16] ({Pentanoyl(5-guanidino)}-C[Nle]LGRVY[Ava][Ava]C-NH2; disulfide 1-10; C-terminus assumed), CSCC[C@@H]1NC(=O)[C@@H](NC(=O)CCCCNC(=N)N)CSSC[C@@H](C(=O)O)NC(=O)CCCCNC(=O)CCCCNC(=O)[C@H](Cc2ccc(O)cc2)NC(=O)[C@H](C(C)C)NC(=O)[C@H](CCCNC(=N)N)NC(=O)CNC(=O)[C@H](CC(C)C)NC1=O [SEQ. ID. NO. 18] is lower in “MCH-2R Binding, % @ concentration” value: 79% @ 10 for the first, 0% @ 10 for the second.

Compared with CSCC[C@@H]1NC(=O)[C@@H](NC(=O)CCCCNC(=N)N)CSSC[C@@H](C(N)=O)NC(=O)CCCCNC(=O)CCCCNC(=O)[C@H](Cc2ccc(O)cc2)NC(=O)[C@H](C)NC(=O)[C@H](CCCNC(=N)N)NC(=O)CNC(=O)[C@H](CC(C)C)NC1=O [SEQ. ID. NO. 20] ({Pentanoyl(5-guanidino)}-CMLGRAY[Ava][Ava]C-NH2; disulfide 1-10; C-terminus assumed), CSCC[C@@H]1NC(=O)[C@H](NC(=O)[C@H](CCCNC(=N)N)NC(C)=O)CSSC[C@@H](C(N)=O)NC(=O)CCCCNC(=O)CCCCNC(=O)[C@H](Cc2ccc(O)cc2)NC(=O)[C@H](C(C)C)NC(=O)[C@H](CCCNC(=N)N)NC(=O)CNC(=O)[C@H](CC(C)C)NC1=O [SEQ. ID. NO. 24] (Ac-R[dC]MLGRVY[Ava][Ava]C-NH2; disulfide 2-11; C-terminus assumed) is higher in “MCH-2R Binding, % @ concentration” value: 23% @ 10 for the first, 50% @ 10 for the second.

Compared with CC(=O)N[C@@H](CCCNC(=N)N)C(=O)N[C@H]1CSSC[C@@H](C(N)=O)NC(=O)CCCCNC(=O)CCCCNC(=O)[C@H](Cc2ccc(O)cc2)NC(=O)[C@H](C(C)C)NC(=O)[C@H](CCCNC(=N)N)NC(=O)CNC(=O)[C@H](CC(C)C)NC(=O)[C@H](C)NC1=O [SEQ. ID. NO. 22] (Ac-RCALGRVY[Ava][Ava]C-NH2; disulfide 2-11; C-terminus assumed), CCCC[C@H]1NC(=O)[C@H](CC(C)C)NC(=O)[C@H](CCSC)NC(=O)[C@@H](NC(=O)[C@H](CCCNC(=N)N)NC(C)=O)CSSC[C@@H](C(N)=O)NC(=O)CCCCNC(=O)CCCCNC(=O)[C@H](Cc2ccc(O)cc2)NC(=O)[C@H](C(C)C)NC(=O)[C@H](CCCNC(=N)N)NC1=O [SEQ. ID. NO. 26] (Ac-RCML[dNle]RVY[Ava][Ava]C-NH2; disulfide 2-11; C-terminus assumed) is higher in “MCH-2R Binding, % @ concentration” value: 44% @ 10 for the first, 64% @ 10 for the second.

Compared with CCCC[C@H]1NC(=O)[C@H](CC(C)C)NC(=O)[C@H](CCSC)NC(=O)[C@@H](NC(=O)CCCCNC(=N)N)CSSC[C@@H](C(N)=O)NC(=O)CCCCNC(=O)CCCCNC(=O)[C@H](Cc2ccc(O)cc2)NC(=O)[C@H](C(C)C)NC(=O)[C@H](CCCNC(=N)N)NC1=O [SEQ. ID. NO. 27] ({Pentanoyl(5-guanidino)}-CML[dNle]RVY[Ava][Ava]C-NH2; disulfide 1-10; C-terminus assumed), CSCC[C@@H]1NC(=O)[C@@H](NC(=O)CCCCNC(=N)N)CSSC[C@@H](C(N)=O)NC(=O)CCCCNC(=O)CCCCNC(=O)[C@H](Cc2ccc(O)cc2)NC(=O)[C@H](C(C)C)NC(=O)[C@H](CCCNC(=N)N)NC(=O)CCCCNC(=O)CCCCNC1=O [SEQ. ID. NO. 32] ({Pentanoyl(5-guanidino)}-CM[Ava][Ava]RVY[Ava][Ava]C-NH2; disulfide 1-10; C-terminus assumed) is lower in “MCH-2R Binding, % @ concentration” value: 62% @ 10 for the first, 49% @ 10 for the second.

Going from CSCC[C@@H]1NC(=O)[C@@H](NC(=O)[C@@H](CCCNC(=N)N)NC(C)=O)CSSC[C@@H](C(N)=O)NC(=O)CCCCNC(=O)CCCCNC(=O)[C@H](Cc2ccc(O)cc2)NC(=O)[C@H](C(C)C)NC(=O)[C@H](CCCNC(=N)N)NC(=O)CCCCNC(=O)CCCCNC1=O [SEQ. ID. NO. 33] (Ac-[dR]CM[Ava][Ava]RVY[Ava][Ava]C-NH2; disulfide 2-11 (inferred); C-terminus assumed) to CC(C)[C@@H]1NC(=O)[C@H](CCCNC(=N)N)NC(=O)CCCCNC(=O)CCCCNC(=O)CCCCNC(=O)[C@@H](NC(=O)CCCCNC(=N)N)CSSC[C@@H](C(N)=O)NC(=O)CCCCNC(=O)CCCCNC(=O)[C@H](Cc2ccc(O)cc2)NC1=O [SEQ. ID. NO. 36], the “MCH-2R Binding, % @ concentration” value falls from 38% @ 10 to 34% @ 10.

Compared with C[C@@H]1NC(=O)[C@@H](NC(=O)CCCCNC(=N)N)CSSC[C@@H](C(=O)O)NC(=O)CCCCNC(=O)CCCCNC(=O)[C@H](Cc2ccc(O)cc2)NC(=O)[C@H](C)NC(=O)[C@H](CCCNC(=N)N)NC(=O)CCCCNC(=O)CCCCNC1=O [SEQ. ID. NO. 34] ({Pentanoyl(5-guanidino)}-CA[Ava][Ava]RAY[Ava][Ava]C-OH; disulfide 1-10), CCCC[C@@H]1NC(=O)[C@@H](NC(=O)CCCCNC(=N)N)CSSC[C@@H](C(=O)O)NC(=O)CCCCNC(=O)CCCCNC(=O)[C@H](Cc2ccc(O)cc2)NC(=O)[C@H](C)NC(=O)[C@H](CCCNC(=N)N)NC(=O)CCCCNC(=O)CCCCNC1=O [SEQ. ID. NO. 35] ({Pentanoyl(5-guanidino)}-C[Nle][Ava][Ava]RAY[Ava][Ava]C-OH; disulfide 1-10) is higher in “MCH-2R Binding, % @ concentration” value: 36% @ 10 for the first, 40% @ 10 for the second.

For CSCC[C@@H]1NC(=O)[C@@H](NC(=O)CCCCNC(=N)N)CSSC[C@@H](C(N)=O)NC(=O)CCCCNC(=O)CCCCNC(=O)[C@H](Cc2ccc(O)cc2)NC(=O)[C@H](C(C)C)NC(=O)[C@H](CCCNC(=N)N)NC(=O)CNC(=O)[C@H](CC(C)C)NC1=O [SEQ. ID. NO. 11], the “MCH-2R Binding, % @ concentration” value was 55% 10.
